Experimental data: PubChem BioAssay AID485344 (National Center for Advancing Translational Sciences (NCATS), 2010)
About 6,900 (2%) of roughly 340,000 compounds were called active. Rule as the data show it: active = inhibition above about 30%; inactive = below that, where a call was filed. Only a part is listed here, and it is no random draw. The source gives no active or inactive call for entries shown without one.

Target: D(2) dopamine receptor (Homo sapiens) (UniProt P14416)
Test: HTS Assay for Allosteric Antagonists of the Human D2 Dopamine Receptor: Primary Screen for Antagonists; also: 0% is about no effect
Conditions: HEK293 TREx D2 cells, calcium flux, dopamine EC80; at 10 µM; stronger effect = higher value
Outline: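 HEK293 T-REx D2 cells, tet-induced, calcium dye no-wash. Cpd pintool add, 180 s kinetic, then EC80 DA, 180 s kinetic. Ca flux read.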

UniProt P14416, sequence (P14416 whole entry, looked up): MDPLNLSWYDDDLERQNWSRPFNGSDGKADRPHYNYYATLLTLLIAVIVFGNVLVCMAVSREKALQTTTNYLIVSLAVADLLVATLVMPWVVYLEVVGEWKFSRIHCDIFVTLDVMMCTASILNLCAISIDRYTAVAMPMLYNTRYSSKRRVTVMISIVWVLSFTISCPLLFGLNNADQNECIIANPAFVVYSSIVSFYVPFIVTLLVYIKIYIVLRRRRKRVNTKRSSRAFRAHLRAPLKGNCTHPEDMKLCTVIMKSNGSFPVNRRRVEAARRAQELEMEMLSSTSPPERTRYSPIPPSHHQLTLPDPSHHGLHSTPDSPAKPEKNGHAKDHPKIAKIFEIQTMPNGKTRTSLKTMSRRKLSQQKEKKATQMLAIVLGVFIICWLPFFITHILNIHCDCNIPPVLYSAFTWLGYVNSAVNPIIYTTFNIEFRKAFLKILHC

In order of rising inhibition:
1. COc1cccc(NC(=O)Cn2c(=O)n(CCCCC(=O)NCc3ccccc3Cl)c(=O)c3ccccc32)c1  -24.5%
2. COc1ccc(C)c2sc(N3CCN(C(=O)c4ccco4)CC3)nc12  -24.4%
3. Cc1ccc(-n2c(SCC(=O)c3ccccc3)nc3c([nH]c4ccccc43)c2=O)cc1  -20.9%
4. Cc1cccc(C(=O)N2CCc3cc(CNS(=O)(=O)c4ccc(F)c(Cl)c4)ccc32)c1  -16.5%
5. Cc1ccc(C(C)C)c(OCC(=O)Nc2ccc(O)c(-c3nc4cc(Cl)ccc4o3)c2)c1  -15.3%
6. COc1ccc(CCNC(=O)c2cn(C)c3ccc(S(=O)(=O)N(C)C)cc3c2=O)cc1OC  -14.7%
7. O=C(CSc1ncc(S(=O)(=O)c2ccc(Br)cc2)c(=O)[nH]1)Nc1ccc2c(c1)OCCO2  -14.2%
8. CCC(CC)C(=O)Nc1cc(-c2nc3cccnc3s2)ccc1C  -13.9%
9. Cc1ccc(Cn2c(CN3CCN(c4cccc(Cl)c4)CC3)nc3c2c(=O)n(C)c(=O)n3C)cc1  -13.5%
10. CC(C)c1ccc2occ(CC(=O)N(Cc3ccc(F)cc3)C3CCS(=O)(=O)C3)c2c1 (centres undefined)  -13.1%
11. CC1CCCCN1C(=O)CCS(=O)(=O)c1cc2c(cc1Cl)NC(=O)CO2 (centres undefined)  -13%
12. COc1ccccc1CNC(=O)c1ccc2c(c1)N(Cc1c(F)cccc1Cl)C(=O)CS2  -12.5%
13. CCOc1ccc(CNS(=O)(=O)c2ccc3c(c2)CCCN3C(C)=O)cc1  -11.8%
14. COC(=O)c1c(C)sc(-c2c(-c3ccc(OC)c(F)c3)[nH]c3c2c(=O)n(C)c(=O)n3C)c1O  -11.6%
15. CC1CCCN(S(=O)(=O)c2cc3c4c(c2)CC(=O)N4CCC3)C1 (centres undefined)  -10.8%
16. CC(C)C(=O)Nc1ccc2nc(SCC(=O)N3CCc4ccccc43)sc2c1  -9.27%
17. CC(=O)c1ccc(N2CCN(C(=O)CCCn3c(=O)[nH]c4ccsc4c3=O)CC2)cc1  -9.21%
18. COc1ccc(NC(=O)c2ccco2)cc1NC(=O)c1c(OC)cccc1OC  -9.01%
19. COc1ccc(C(=O)Oc2cc(-c3ccc(OC)c(OC)c3)cc(=O)c3c(C)oc(C)c23)cc1  -8.77%
20. COc1ccc(C(CC(=O)Nc2ccc(Br)cn2)N2Cc3ccccc3C2=O)cc1 (centres undefined)  -8.3%
21. CC(=O)Nc1c(C)nn(-c2ccccc2)c1N1CCC(C(=O)Nc2ccccc2F)CC1  -8.26%
22. Cc1cc(C)cc(NC(=O)c2cc(S(=O)(=O)N3CCc4ccccc43)cn2C)c1  -8.22%
23. Cc1ccc(NC(=O)CN2C(=O)CC(c3ccc(C)c(C)c3)=Nc3ccccc32)cc1  -7.79%
24. CCN(c1cccc(C)c1)S(=O)(=O)c1c(C)nc2sc(C)cn2c1=O  -7.5%
25. COc1ccccc1CNC(=O)C1CCN(c2nnc(C)c3c(C)n(-c4ccccc4)nc23)CC1  -7.41%
26. COc1ccc(CNC(=O)CN(C)S(=O)(=O)c2ccc3c(c2)c(=O)n(C)c(=O)n3C)cc1  -7.07%
27. CCSc1nc2ccccc2c(OCc2cc(C(=O)OC)ccc2OC)c1C(=O)OC  -5.86%
28. Cc1nc2c(c(C)nn2C(C)(C)C)c(C)c1CCC(=O)Nc1ccc(F)cc1  -5.43%
29. Cc1ccc(C)c(NC(=O)C2CCN(c3cc(C)nc4c(-c5ccc(Cl)cc5)c(C)nn34)CC2)c1  -4.52%
30. Cc1nn(CC(=O)NCc2ccc(N(C)C)cc2)c(=O)c2nn(-c3ccccc3)c(C)c12  -4.2%
31. CCS(=O)(=O)c1nc(S(=O)(=O)c2ccc(C)cc2)c(NC)s1  -4.07%
32. COc1cccc(CNCCCSc2nnnn2C)c1OC  -3.99%
33. COc1ccccc1CCNC(=O)C1CCN(c2nnc(C)c3c(C)n(-c4ccc(C)cc4)nc23)CC1  -3.59%
34. CC(C)C(=O)Nc1nnc(S(=O)(=O)N2c3ccccc3CC2C)s1 (centres undefined)  -3.58%
35. Cn1c(C(=O)NCc2cccc(Cl)c2)cc2oc3ccccc3c21  -2.81%
36. COc1ccc(NC(=O)CCc2nnc3n(Cc4ccc(C)cc4)c(=O)c4ccccc4n23)cc1  -2.27%
37. CC(C)c1cc(-c2nc(-c3cccc(Cl)c3)no2)n[nH]1  -2.11%
38. O=C(Nc1ccc2oc(-c3cccc(F)c3)nc2c1)c1ccc2ccccc2c1  -2.04%
39. CC(C)c1ccc(NC(=O)Cn2nnc(C(=O)NCc3ccc(Cl)cc3)c2N)cc1  -1.74%
40. COc1ccc(CNC(=O)Cc2c(C)c3cc4c(C)coc4c(C)c3oc2=O)cc1OC  -1.58%
41. CC(C)c1ccc(NC(=O)Cn2cc(S(=O)(=O)Cc3ccccc3Cl)c3ccccc32)cc1  -0.847%
42. COc1ccc(CCNC(=O)c2c(C)oc3ncn(CC(C)C)c(=O)c23)c(OC)c1  -0.787%
43. COc1ccc(NC(=O)CC(C)S(=O)(=O)c2cc3c(cc2C)NC(=O)CO3)cc1OC (centres undefined)  0.39%
44. COc1ccccc1N1CCN(c2cc(C)nc3nncn23)CC1  0.641%
45. COc1ccc2c(c1)sc1ncc(C(=O)NCc3cccc(C)c3)c(=O)n12  1.04%
46. O=C(Nc1ccccc1)N(Cc1cccc(Cl)c1)c1ccccn1  1.48%
47. COCCCNC(=O)c1ccc(Cn2c(=O)c3cccn3c3cccnc32)cc1  2.72%
48. CCCOc1cccc(C(=O)Nc2cccc(NC(=O)c3ccc(Cl)cc3Cl)c2)c1  2.88%
49. COc1ccc(Nc2c(-c3ccsc3)nc3nc(C)cc(C)n23)cc1  2.91%
50. CCOc1ccccc1N1CCN(S(=O)(=O)c2ccc(C3CCCCC3)cc2)CC1  3.23%
51. O=[N+]([O-])c1ccc(O)c(-c2ccnc3cc(-c4ccccc4)nn23)c1  3.25%
52. Cn1nc(C(=O)N2CCN(c3ccc(F)cc3)CC2)c2c1-c1ccccc1SC2  3.51%
53. COc1ccc(-c2csc3ncnc(Nc4cc(OC)cc(OC)c4)c23)cc1  3.96%
54. COc1ccc(-n2cc(C(=O)Oc3cc(C)cc(C)c3)c3ccccc3c2=O)cc1  3.97%
55. COc1ccccc1CC(=O)Nc1ccc2nc(Nc3cccc(Cl)c3)cc(C)c2c1  4.13%
56. Cc1ccc(CNC(=O)Cn2c3ncccc3c(=O)n2-c2ccc(C)cc2)cc1  4.3%
57. O=C1CCSC2(C(=O)N(Cc3ccc(F)cc3)c3ccccc32)N1c1cccc(F)c1 (centres undefined)  5.75%
58. CCOc1ccc(CNC(=O)CSc2c3c(nc4ccc(Cl)cc24)CCCC3)cc1  5.99%
59. Cc1ccc2oc(C(=O)Nc3sc4c(c3C(=O)NCc3ccco3)CCC4)cc(=O)c2c1  6.24%
60. Cc1cccc(C)c1OC(=O)CSc1nnc(-c2ccc3c(c2)OCO3)o1  6.32%
61. CC1Cc2cc(S(=O)(=O)CCC(=O)NCc3ccccc3Cl)ccc2N1C(=O)C1CC1 (centres undefined)  6.78%
62. CCOC(=O)c1c(S(=O)(=O)N2CCC(C(=O)Nc3ccc(F)cc3F)CC2)c(C)n(C)c1C  8.54%
63. COc1ccc(CCNC(=O)c2ccc3c(c2)ncn3-c2ccc(C(C)C)cc2)cc1OC  8.92%
64. CC(=O)c1ccc(N2CCN(C(=O)Nc3ccc(C(C)C)cc3)CC2)cc1  8.97%
65. CC(C)CC(=O)OCc1cc(=O)n2nc(C3CCCCC3)sc2n1  9.4%
66. COc1ccc(NS(=O)(=O)c2ccc3[nH]c4c(c3c2)CCCCC4)cc1  11.1%
67. CC1CCN(C(=O)CSc2nc3ccccc3nc2Cc2ccccc2)CC1  12.2%
68. CCC(=O)N1CCc2cc(S(=O)(=O)Nc3cc(C)ccc3OC)ccc21  14.4%
69. COc1cccc(NC(=O)Cn2cc(C(=O)c3ccco3)c3ccccc32)c1  15.8%
70. Cc1nn2c(=O)cc(COC(=O)c3ccc(NC(=O)COc4ccccc4F)cc3)nc2s1  17.4%
71. CCOc1ccc(CN2C(=O)c3ccccc3C2C(=O)NCCc2ccc(OC)c(OC)c2)cc1 (centres undefined)  18.6%
72. O=C(Nc1nnc(S(=O)(=O)N2CCCCCC2)s1)c1ccc(Cl)cc1  19%
73. COc1ccc(Cn2c(CO)cnc2SCc2ccccc2C)cc1  21.6%
74. CCOC(=O)Cn1c(=O)oc2cc(S(=O)(=O)N3CCN(c4ccc(F)cc4)CC3)ccc21  23.1%
75. CCCCC(Sc1nc2cc3c(cc2c(=O)n1CCCC(=O)NCc1ccc2c(c1)OCO2)OCO3)C(=O)OCC (centres undefined)  23.5%
76. CCc1ccccc1NC(=O)Cn1ccn(Cc2ccccc2)c(=O)c1=O  26%

In the case of `COCC(=O)Nc1cc(C(=O)Nc2ccccc2C)ccc1Cl`, the inhibition was active: 31.5%.
With `COc1cc(CN(C)CCc2ccccc2)ccc1OCc1ccccc1` the inhibition was active: 36.3%.
With `CCCC(=O)Nc1nc2nc(-c3ccccc3)cc(=O)n2[nH]1` the inhibition was active: 31.8%.
In the case of `Cn1cccc1Cc1nnc(SCC(=O)NC2CCCC2)n1-c1ccc(F)cc1`, the inhibition was active: 36.2%.
For `C/C(=N\NC(=O)CN(c1ccccc1)S(C)(=O)=O)c1ccccc1O`, the inhibition was active: 43.9%.
`CC(C)OC(=O)c1c(NC(=O)CCn2nnc3ccccc32)sc2c1CCCC2` was tested, and the inhibition was active: 36.7%.
For `C=C(C)[C@@H]1CC[C@]2(C(=O)O)CC[C@]3(C)[C@H](CC[C@@H]4[C@@]5(C)CC[C@H](O)C(C)(C)[C@@H]5CC[C@]43C)[C@@H]12`, the inhibition was active: 36.4%.
For `COc1ccc(CNC(C)CCc2ccccc2)cc1` (centres undefined), the inhibition was active: 61.5%.
`CN1CCN(c2nc(Nc3ccccc3)nc(N)c2[N+](=O)[O-])CC1` was tested, and the inhibition was active: 82.6%.
With `Cc1ccc(F)cc1NC(=O)CN1CCN(c2ccccn2)CC1` the inhibition was active: 50.3%.
In the case of `CN(C)S(=O)(=O)c1ccc(Cl)c(NC(=O)CN2CCCC2)c1`, the inhibition was active: 35.9%.
`Cc1ccc2oc(=O)c3cnn(CC(=O)N(Cc4ccco4)C4CCCCC4)c3c2c1` was tested, and the inhibition was active: 32.4%.
For `Cn1c2ccccc2c2cnn(CC(=O)NCCCN3CCN(c4ccccc4F)CC3)c(=O)c21`, the inhibition was active: 63.3%.
`COc1ccc(Oc2ncc(CN3CCN(c4ccccc4)CC3)s2)cc1` was tested, and the inhibition was active: 76.3%.
With `CN(CC(=O)Nc1cccc(S(=O)(=O)N(C)C)c1)Cc1ccccc1` the inhibition was active: 32.9%.
With `CC(CC(=O)N1CCN(C(=O)c2ccccc2)CC1)c1ccccc1` (centres undefined) the inhibition was active: 38%.
`O=C(C1CCCO1)N1CCN(C(=S)Nc2ccc(F)cc2)CC1` (centres undefined) was tested, and the inhibition was active: 41%.
With `COc1ccc(N2CCN(c3ccc4nnc(CCC(=O)Nc5ccc(C)cc5)n4n3)CC2)cc1` the inhibition was active: 34%.
